{"source": "paper PMC4920026", "about": "(Scientific Reports, 2016)", "origin": "cited, not measured here", "settings": "aqueous solution, from xenon partial pressure; cited from earlier work", "data": [{"compound": "[Xe]", "note": "[xenon]", "values": [{"measurement": "solubility coefficient", "value": 44, "unit": "mM MPa^−1"}]}]}
